IC50 is the fitted dose that halves viability relative to control wells, and lower means more sensitive; a fit beyond the top or the lowest dose is shown as a bound at that dose. For AUC the same curve is integrated over the 256-fold range of doses and scaled to a fraction; values near 1 show little effect. For some assays here: A top dose marked as inferred comes from the curve model; the source does not state it. For some assays here: An entry number marks a drug with two screens in the source, which often give different values. A value given as a limit tells only on which side of the number the result lay.

Here are results for twelve cell lines from the supplement of paper PMC4967469.

Experiment in all cases: Viability of human cancer cell lines after 72 h of drug (GDSC screen)
Compound in assay [1]: CC1(C)CNc2cc(NC(=O)c3cccnc3NCc3ccncc3)ccc21 [AMG-706]
The following applies: top dose 2 µM; top dose inferred. On the procedure:
(§1)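 Human cancer cell lines in 384-well plates, medium with 10% serum, drug for 72 h over a 256-fold dose range (nine 2-fold or five 4-fold steps up to the top dose). Adherent lines were fixed and stained with the nucleic acid dye Syto60, suspension lines read with resazurin; signal relative to control wells, capped at 0 and 100%. One two-parameter sigmoid per drug and line, fitted in a mixed model over all curves with the slope shared within a line.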

Compound in assay [2]: CC(=O)O[C@@]12CO[C@@H]1C[C@H](O)[C@@]1(C)C(=O)[C@H](O)C3=C(C)[C@@H](OC(=O)[C@H](O)[C@@H](NC(=O)OC(C)(C)C)c4ccccc4)C[C@@](O)([C@@H](OC(=O)c4ccccc4)[C@H]21)C3(C)C [Docetaxel]
As to conditions: top dose 0.0125 µM. On the procedure: as §1

Compound in assay [3]: c1ccc2c(CCNc3ccc(Nc4ccncc4)cc3)c[nH]c2c1 [JNJ-26854165]
The following applies: top dose 10 µM. The procedure: as §1

Compound in assay [4]: Cc1sc2c(c1C)C(c1ccc(Cl)cc1)=N[C@@H](CC(=O)OC(C)(C)C)c1nnc(C)n1-2 [JQ1]
The following applies: top dose 1 µM; screen: GDSC drug entry 1218; top dose inferred. On the procedure:
as §1

Compound in assay [5]: CCOc1nc(NC(=O)Cc2cc(OC)ccc2OC)cc(N)c1C#N [JNK Inhibitor VIII]
The following applies: top dose 10 µM; top dose inferred. On the procedure: as §1

Usually IC50 stands for the concentration that inhibits the measured activity by half. For the cell line “MHH-CALL-2 (B-cell leukaemia, suspension)”, the AUC in assay [1] came to 0.982; in assay [2], 0.992; in assay [3], 0.984; in assay [4] it was 0.997; in assay [5], 0.991. Also, the IC50 was more than 2000 nM in assay [1]; more than 12.5 nM in assay [2]; more than 10000 nM in assay [3]; more than 1000 nM in assay [4]; more than 10000 nM in assay [5].

For the cell line MKN7 (stomach, adherent), the AUC came to 0.975 in assay [1]; 0.783 in assay [2]; 0.883 in assay [3]; 0.976 in assay [4]; 0.974 in assay [5]. The IC50 was more than 2000 nM in assay [1]; 7.32 nM in assay [2]; more than 10000 nM in assay [3]; more than 1000 nM in assay [4]; more than 10000 nM in assay [5].

Regarding MM1S (myeloma, suspension), the AUC in assay [1] amounted to 0.987; in assay [2], 0.884; in assay [3], 0.856; in assay [5], 0.987. Further, the 50% inhibitory concentration (IC50) in assay [1] was more than 2000 nM; in assay [2], 12.4 nM; in assay [3], 7420 nM; in assay [5] it was more than 10000 nM.

Turning to “MOLM-16 (acute myeloid leukaemia, suspension)”, the AUC was found to be 0.985 in assay [1]; 0.817 in assay [2]; 0.828 in assay [3]; 0.977 in assay [4]; 0.974 in assay [5]. Besides, the IC50 in assay [1] was more than 2000 nM; in assay [2], 5.91 nM; in assay [3] it was 5170 nM; in assay [4], more than 1000 nM; in assay [5], more than 10000 nM.

Take “MOLT-16 (T-cell lymphoblastic leukaemia, suspension)”: the AUC came out at 0.991 in assay [1]; 0.718 in assay [2]; 0.34 in assay [3]; 0.705 in assay [4]; 0.98 in assay [5]. Further, the IC50 in assay [1] was more than 2000 nM; in assay [2], 2.77 nM; in assay [3], 249 nM; in assay [4] it was 206 nM; in assay [5], more than 10000 nM.

In the case of NCC010 (kidney, adherent), the AUC is 0.91 in assay [1]; 0.895 in assay [2]; 0.856 in assay [3]; 0.983 in assay [4]; 0.934 in assay [5]. Further, the half-inhibitory concentration (IC50) in assay [1] was more than 2000 nM; in assay [2] it was more than 12.5 nM; in assay [3] it was 8940 nM; in assay [4] it was more than 1000 nM; in assay [5], more than 10000 nM.

In the case of “NCI-H146 (small cell lung carcinoma, suspension)”, the AUC in assay [1] worked out at 0.994; in assay [2], 0.99; in assay [3], 0.954; in assay [4], 0.994; in assay [5], 0.993. Also, the IC50 in assay [1] was more than 2000 nM; in assay [2], more than 12.5 nM; in assay [3], more than 10000 nM; in assay [4] it was more than 1000 nM; in assay [5], more than 10000 nM.

Take “NCI-H508 (large intestine, semi-adherent)”: the AUC amounted to 0.976 in assay [1]; 0.897 in assay [2]; 0.938 in assay [3]; 0.946 in assay [4]; 0.976 in assay [5]. Further, the IC50 is more than 2000 nM in assay [1]; more than 12.5 nM in assay [2]; more than 10000 nM in assay [3]; more than 1000 nM in assay [4]; more than 10000 nM in assay [5].

With NCI-H835 (lung carcinoid, suspension), the AUC in assay [1] worked out at 0.98; in assay [2], 0.98; in assay [3] it was 0.958; in assay [4], 0.928; in assay [5], 0.988. The IC50 was more than 2000 nM in assay [1]; more than 12.5 nM in assay [2]; more than 10000 nM in assay [3]; more than 1000 nM in assay [4]; more than 10000 nM in assay [5].

NCI-H929 (myeloma, suspension): the AUC in assay [1] stood at 0.963; in assay [2], 0.891; in assay [3], 0.949; in assay [4] it was 0.975; in assay [5] it was 0.973. The IC50 was more than 2000 nM in assay [1]; 10.8 nM in assay [2]; more than 10000 nM in assay [3]; more than 1000 nM in assay [4]; more than 10000 nM in assay [5].

“NCI-H1105 (small cell lung carcinoma, suspension)”: the AUC in assay [1] turned out to be 0.993; in assay [2] it was 0.93; in assay [4], 0.992; in assay [5] it was 0.993. Further, the IC50 is more than 2000 nM in assay [1], more than 12.5 nM in assay [2], more than 1000 nM in assay [4] and more than 10000 nM in assay [5].

For the cell line “NCI-H1341 (small cell lung carcinoma, suspension)”, the AUC in assay [1] came out at 0.991; in assay [2] it was 0.922; in assay [3], 0.962; in assay [4], 0.919; in assay [5], 0.992. Also, the IC50 is more than 2000 nM in assay [1]; more than 12.5 nM in assay [2]; more than 10000 nM in assay [3]; more than 1000 nM in assay [4]; more than 10000 nM in assay [5].
